Measurements taken from article PMC10668032.
This is one part of the list. At the low end of the ranking the order means little.

target: SIX1 homeodomain (reference allele) (UniProt Q15475); test: universal protein binding microarray; details: Universal all-10-mer PBM (8x60K, AMADID 030236), 300 nM GST-tagged protein, Alexa Fluor 488 anti-GST; buffer, salt, pH and temperature not stated; high values mean tight binding; most listed sequences are background and not binding sites; double strand, one strand shown

Row | Sequence | binding signal [E-score]
1 | CGTTACAC | -0.0126
2 | CGCGACCA | -0.0994
3 | GAGTTGCA | 0.0195
4 | ATAACCGC | 0.138
5 | TCATATGA | 0.303
6 | CGATTACG | 0.00347
7 | GAAACTCA | -0.261
8 | AAAAATGG | -0.194
9 | ACAATACA | 0.125
10 | GTCTTAAA | -0.0745
11 | CGGAGCGC | -0.216
12 | AGGGCCGG | -0.0303
13 | ATTTCTCG | 0.00262
14 | CTCGTATC | 0.367
15 | GATCTAAA | 0.0697
16 | CCCTCTTC | -0.0381
17 | AAAGTCTC | -0.231
18 | GGAGGACC | -0.205
19 | CAACGGTC | -0.224
20 | TATGTACA | 0.139
21 | AAGACAAT | -0.307
22 | ACTTGTTA | -0.0516
23 | CCACGCTC | -0.138
24 | AGGAATGA | 0.141
25 | AGGAAATA | -0.0922

Row | Sequence | binding signal [E-score]
26 | AGCCCACT | -0.0545
27 | GACAGTAC | -0.073
28 | GCTCGAAA | -0.0875
29 | GTAGACAC | 0.182
30 | ATCCTACC | 0.299
31 | ATTCCGGC | -0.0584
32 | CGTCCTAA | -0.0808
33 | ACTACGCA | -0.205
34 | GCTCGAAC | -0.254
35 | AACTGATG | -0.147
36 | GCTATGCC | -0.212
37 | AAGACCCC | -0.0381
38 | AGCGCTCG | -0.189
39 | GCGGAACC | -0.0447
40 | AGTACACA | 0.0588
41 | ACAAGAAG | -0.0225
42 | AGCCCCTA | 0.153
43 | AACGCGTC | -0.231
44 | GGTAGCAC | -0.0453
45 | CCCTGAGA | 0.116
46 | CCCCCGGC | -0.0802
47 | GTAAGAAC | -0.0503
48 | GTCTCCGA | -0.0094
49 | CGACCCGA | 0.189
50 | AGTTGCAG | -0.0903

Row | Sequence | binding signal [E-score]
51 | ATCCCCAT | 0.295
52 | CCCGCAGG | -0.073
53 | AGGTCCAT | -0.175
54 | CGCTGATC | 0.279
55 | AGCGAGGC | -0.0637
56 | AGATTTAA | -0.0172
57 | CCGCATAA | 0.172
58 | ACTAGGCT | 0.0286
59 | CCCCGCAC | 0.189
60 | CTAGTGAA | -0.165
61 | CCGCATCG | 0.153
62 | GGCGACTA | -0.0635
63 | AGTTTAAG | -0.286
64 | CGTCTGAC | -0.0289
65 | CCATCGGA | 0.0092
66 | AAGGGAGA | 0.0674
67 | ACTGCGTG | -0.0913
68 | GCCGCAGA | -0.121
69 | ATCGACAG | 0.0865
70 | AGGGAACG | -0.238
71 | ACCGGCCG | 0.0327
72 | AGATCTGG | 0.221
73 | AATCGAGC | -0.126
74 | CATTGAGC | -0.222
75 | AAAGAGCC | -0.249

Row | Sequence | binding signal [E-score]
76 | AAGAAATT | -0.302
77 | GCTCCCAC | -0.169
78 | CAAGAGCA | -0.175
79 | CATTTGCA | -0.0443
80 | AATCCGGT | 0.252
81 | ACGAGGCT | -0.0928
82 | TCGGCCAA | -0.204
83 | CATCGATA | 0.308
84 | GACGCGCC | -0.0316
85 | GGACCACC | -0.00528
86 | AGCCGCCG | -0.134
87 | GAATAGAC | -0.147
88 | CGTAATAA | -0.0069
89 | CCTTTACG | 0.0121
90 | GTCATTTA | 0.0488
91 | GATTGTTA | 0.0648
92 | AAATATGG | 0.0106
93 | AAGCAATG | -0.00951
94 | CGTCCGGC | -0.0156
95 | GCCCAGCC | -0.0883
96 | CCAGAACA | -0.0153
97 | GAGTGAGC | 0.00749
98 | GTTTAGTA | -0.0929
99 | CCGCGTTC | 0.0464
100 | AAGCCGTG | -0.0841

Row | Sequence | binding signal [E-score]
101 | CCTAGGAG | -0.115
102 | CTAATCGC | 0.076
103 | CAATGAAA | 0.035
104 | AGAGGGCC | -0.209
105 | GCTGGGAA | -0.0626
106 | AATACTTC | 0.2
107 | AATATGAC | 0.145
108 | AAAAAAAG | -0.198
109 | GCTCAGCC | -0.118
110 | ACGTACTA | 0.0776
111 | CTCTGGAC | -0.168
112 | ACAATACG | 0.25
113 | CCATTCAA | -0.0832
114 | ATCATTCG | 0.294
115 | GCGCATAC | -0.083
116 | CCTCTACG | 0.12
117 | CACCCAAA | 0.0136
118 | ACATAGCC | 0.087
119 | TCCCAGAA | -0.0683
120 | AGACAAAA | -0.298
121 | ACAGACAG | -0.034
122 | TACGGCCA | -0.104
123 | CCCAACTC | -0.0741
124 | AAGTCCAT | -0.125
125 | CAGGTTAA | -0.0882

Row | Sequence | binding signal [E-score]
126 | ATTATAAG | 0.0247
127 | CAAATACC | 0.0657
128 | AGGCCTCG | -0.203
129 | AGCTCCAA | -0.157
130 | CCCGTTAC | 0.0129
131 | GAATCTGA | 0.121
132 | AATGTTTC | -0.302
133 | AAGCGCGG | -0.146
134 | CAAGCGGA | 0.14
135 | CGTTTCCC | -0.331
136 | TCTGAAGA | -0.0225
137 | GAACCATC | -0.117
138 | ATGATGTG | -0.195
139 | ATGAATGG | -0.0943
140 | CTATATAA | -0.0277
141 | CCGTGGCC | -0.169
142 | GGTATCAC | 0.497
143 | GCTTCTCC | 0.0455
144 | GTCGTAGA | -0.103
145 | CATCGGCG | -0.00146
146 | CACTGCGC | -0.17
147 | CGGGCGAA | -0.242
148 | GGAATGTA | 0.0484
149 | GGAAGGCA | -0.24
150 | CACGAGGG | -0.0578

Row | Sequence | binding signal [E-score]
151 | AACGTAAC | -0.152
152 | AAATTAGG | -0.199
153 | ATCGTACC | 0.217
154 | AAGAGTGA | -0.0741
155 | GGTCGGCA | -0.0937
156 | CAGGAACC | -0.129
157 | ATCAGGTA | 0.293
158 | AATTCCCT | -0.152
159 | ATTTTGTG | 0.0391
160 | GATCGGGA | 0.314
161 | CCGGGCCC | -0.156
162 | ACATCTCT | -0.0709
163 | AACGTGGG | -0.236
164 | CAACAGTA | -0.116
165 | AACGAACA | 0.0688
166 | ATTATATG | 0.182
167 | ATAACGTG | 0.0774
168 | CTTCGCCA | -0.199
169 | TGCTAACA | -0.073
170 | TACGTGCA | -0.0998
171 | ATACCAAA | 0.317
172 | AATGAATG | -0.0801
